Experimental findings from publication PMC10527347 (Journal of molecular biology, 2023) are described below.

This series concerns the molecule itself. As to the kind of experiment: cross-linking.

B1: Hsp90Ec N347C (natural protein)
chain: not shown
With B1, the binding result was “binds”.
